Out of some 390,000 compounds screened, about 150 (0.038%) were called active. This list was built around the results that the source calls inconclusive (neither active nor inactive); the mix of calls is not that of the screen. Calls follow the shape of the dose curve; as a rule, active = well fitted inhibition curve with a large enough effect; inconclusive = small, poorly fitted or top-dose-only effect; inactive = no such curve, though single readings can be large or run the other way. Where the call is inconclusive, the potency comes from a doubtful curve fit.
Each compound was assayed against Regulator of G-protein signaling 4 (Homo sapiens) (UniProt P49798) (assay: Inhibitors of Regulator of G Protein Signaling (RGS) 4: qHTS). Conditions: Transcreener GDP fluorescence polarization, RGS4-accelerated GTP hydrolysis; series mostly up to 114 µM.
Procedure, shortened: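 MLSMR compounds (23 nl, pin-transferred) preincubated 10 min at room temperature with a 500nM (2x) first reagent, then RGS4 at 900nM (2x) plus Transcreener GDP mix added; fluorescence polarization (620/688 nm) read before and after 90 min at 30 °C.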
Also: nearly all actives have a fitted effect of over 75% in size.
Potency is read from the fitted curve at half-maximal effect; tags tell the direction and shape of the fitted curve.

Sequence of UniProt P49798 (P49798 whole entry, looked up): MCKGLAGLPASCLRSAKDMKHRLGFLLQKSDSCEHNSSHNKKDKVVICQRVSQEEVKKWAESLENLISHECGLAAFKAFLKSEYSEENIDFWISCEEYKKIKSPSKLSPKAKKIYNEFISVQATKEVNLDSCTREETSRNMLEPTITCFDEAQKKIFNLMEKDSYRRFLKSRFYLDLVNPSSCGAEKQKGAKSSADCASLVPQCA

**Q.** For `CN1C/C(=C/c2cccnc2)C(=O)/C(=C/c2cccnc2)C1`, which Potency is on record?
**A.** inconclusive: 56.2 µM [inhibitor, partial curve, poor fit]

**Q.** `COc1ccc(-n2c(-c3cccc(C)c3[N+](=O)[O-])n[nH]c2=S)cc1` was tested. Which Potency did it give?
**A.** inactive

**Q.** `COc1ccc(NC(=O)c2cc(-c3ccccc3)nc3c2cnn3C(C)C)cc1` was tested. Which Potency did it give?
**A.** inconclusive: 31.6 µM [inhibitor, full curve, poor fit]

**Q.** `C#CCOCCOCCOCCNc1nc(N2CCN(C(=O)CCCCCCCCCCNC(=O)[C@@H]([C@H](C)O)n3cc(C)nn3)CC2)nc(N2CCN(C(=O)CCCCCCCCCCNC(=O)[C@@H]([C@H](C)O)n3cc(C)nn3)CC2)n1` was tested. Which Potency did it give?
**A.** inactive

**Q.** How did the Potency turn out when `O=C1/C(=C\c2ccc(O)cc2)CCC1CNc1ccc(Cl)cc1` (configuration not stated) was run?
**A.** inconclusive: 35.5 µM [inhibitor, partial curve, poor fit]

**Q.** `COc1cccc(CNC(=O)CCC2CCCN(C/C=C/c3ccccc3OC)C2)c1` (configuration not stated) was tested. Which Potency did it give?
**A.** inactive

**Q.** `O=C(CCc1nnc(CCc2ccccc2)o1)N1CCCCC1CCn1cccn1` (configuration not stated) was tested. Which Potency did it give?
**A.** inconclusive: 50.1 µM [inhibitor, partial curve, poor fit]

**Q.** How did the Potency turn out when `COc1ccc(CN(C)CC(=O)NC(C)c2ccccc2)c(OC)c1` (configuration not stated) was run?
**A.** inconclusive: 89.1 µM [inhibitor, single point]

**Q.** With `CCOC(=O)c1cc2c(ccn2C)n1CC(=O)N1CCN(c2ccc(F)cc2)CC1` as the compound, how does the Potency read?
**A.** inactive

**Q.** With `NC(=O)c1ccc(NC(=O)CSC2=Nc3ccccc3C3CC=NN23)cc1` (configuration not stated) as the compound, how does the Potency read?
**A.** inconclusive: 79.4 µM [inhibitor, partial curve, poor fit]

**Q.** Which Potency does the source give for `COc1ccc(-c2ccc3c(=O)cc(-c4ccsc4)oc3c2)cn1` here?
**A.** inconclusive: 44.7 µM [inhibitor, partial curve, poor fit]

**Q.** For `NC(=O)c1ccsc1NC(=O)COC(=O)c1ccc(Cl)c(N)c1`, which Potency is on record?
**A.** inconclusive: 100 µM [inhibitor, partial curve, poor fit]

**Q.** With `CCN1CCN(c2ncc(C(=O)N3CCCc4ccccc43)c3ccccc23)CC1` as the compound, how does the Potency read?
**A.** inactive

**Q.** How did the Potency turn out when `CC(C)(C)OC(=O)C[C@@H]1C/C=C\C[C@@H](CC(=O)NCCO)C(=O)NC[C@@H](c2ccccc2)OC1=O` was run?
**A.** inactive

**Q.** For `S=c1[nH]c2ccccc2n1Cc1ccccc1`, which Potency is on record?
**A.** inconclusive: 79.4 µM [inhibitor, partial curve, poor fit]

**Q.** `COc1ccc(Oc2ccc(N/C=C3\CCCC3=O)cc2)cc1` was tested. Which Potency did it give?
**A.** inconclusive: 89.1 µM [inhibitor, single point]

**Q.** How did the Potency turn out when `CC1(C)Cc2c(C#N)c(NCCc3ccccc3)nc(-c3ccco3)c2CO1` was run?
**A.** inconclusive: 44.7 µM [inhibitor, partial curve, poor fit]

**Q.** For `CN(NC(=O)c1ccco1)c1nc2ccccc2nc1C(F)(F)F`, which Potency is on record?
**A.** inactive

**Q.** `COc1ccc(NC(=O)c2c(C(=O)Nc3ccccc3)sc3nc(C)cc(=O)n23)cc1` was tested. Which Potency did it give?
**A.** inactive

**Q.** How did the Potency turn out when `CCOc1ccccc1NC(=O)Cc1coc2c(C)c(C)ccc12` was run?
**A.** inactive

**Q.** How did the Potency turn out when `Cc1ccc(S(=O)(=O)N2CCN(CC(=O)N/N=C/C=C/c3ccccc3)CC2)cc1` was run?
**A.** inactive

**Q.** Which Potency does the source give for `CCC1CC=CC2C1C(=O)N(Cc1ccccc1)C2c1ccoc1` (configuration not stated) here?
**A.** inconclusive: 25.1 µM [inhibitor, full curve, poor fit]

**Q.** For `Cc1ccc(CN2C(=O)C(Cc3ccccc3)Nc3ncnc(N4CCN(c5ccccc5)CC4)c32)cc1` (configuration not stated), which Potency is on record?
**A.** inconclusive: 50.1 µM [inhibitor, partial curve, poor fit]

**Q.** For `CCOC(=O)N1CCc2c(sc(NCc3sccc3C)c2C(=O)Nc2cc(OC)ccc2OC)C1`, which Potency is on record?
**A.** inconclusive: 50.1 µM [inhibitor, partial curve, poor fit]

**Q.** `O=C(COC(=O)/C=C/c1ccccc1[N+](=O)[O-])Nc1ccc(S(=O)(=O)N2CCOCC2)cc1` was tested. Which Potency did it give?
**A.** inactive

**Q.** `Cc1occc1C(=O)Nc1ccc(S(=O)(=O)N2CCN(C)CC2)cc1` was tested. Which Potency did it give?
**A.** inactive

**Q.** Which Potency does the source give for `CCOc1ccc(C(=O)c2cn(CC(=O)Nc3ccc(F)c(F)c3)c3cc4c(cc3c2=O)OCCO4)cc1` here?
**A.** inconclusive: 17.8 µM [inhibitor, full curve, poor fit]

**Q.** How did the Potency turn out when `N#CC1=C(c2ccc(-c3ccccc3)cc2)COC1=O` was run?
**A.** inconclusive: 79.4 µM [inhibitor, partial curve, poor fit]

**Q.** With `Cc1ccc(Cc2cnc(N)s2)o1` as the compound, how does the Potency read?
**A.** inconclusive: 35.5 µM [inhibitor, full curve, poor fit]

**Q.** `Cc1ccc(C)c2[nH]c(=O)c(CN(Cc3cccnc3)C(=S)NCc3ccco3)cc12` was tested. Which Potency did it give?
**A.** inconclusive: 17.8 µM [inhibitor, full curve, poor fit]

**Q.** Which Potency does the source give for `COc1ccc(NC(=O)C2=Cc3ccccc3OC2)cc1` here?
**A.** inconclusive: 50.1 µM [inhibitor, partial curve, poor fit]

**Q.** `CN1CCN(c2ccc(S(=O)(=O)N3CCCCC3)cc2NC(=O)/C=C/c2ccc(Cl)c([N+](=O)[O-])c2)CC1` was tested. Which Potency did it give?
**A.** inconclusive: 44.7 µM [inhibitor, partial curve, poor fit]

**Q.** For `CC/C(=C/c1sc2ccccc2[n+]1CC)SC`, which Potency is on record?
**A.** inconclusive: 56.2 µM [inhibitor, partial curve, poor fit]

**Q.** For `O=C(Nc1cccc(C(=O)Nc2ccc(S(=O)(=O)O)c3cc(S(=O)(=O)O)cc(S(=O)(=O)O)c23)c1)Nc1cccc(C(=O)Nc2ccc(S(=O)(=O)O)c3cc(S(=O)(=O)O)cc(S(=O)(=O)O)c23)c1`, which Potency is on record?
**A.** inactive

**Q.** Which Potency does the source give for `FC(F)(F)c1ccc2c(c1)N1CCCC1CN2` (configuration not stated) here?
**A.** inconclusive: 44.7 µM [inhibitor, partial curve, poor fit]

**Q.** `O=C(CCCn1c(=S)[nH]c2cc3c(cc2c1=O)OCO3)N1CCN(c2ccccn2)CC1` was tested. Which Potency did it give?
**A.** inconclusive: 79.4 µM [inhibitor, single point]

**Q.** With `Cc1nc(SCc2ccc(O)c([N+](=O)[O-])c2)c([N+](=O)[O-])[nH]1` as the compound, how does the Potency read?
**A.** inconclusive: 44.7 µM [inhibitor, partial curve, poor fit]

**Q.** `Cc1ccc(S(=O)(=O)NCC(Nc2cccc(Cl)c2)c2ccccc2)cc1` (configuration not stated) was tested. Which Potency did it give?
**A.** inactive

**Q.** `C=CCC[C@H](Cc1ccc(F)cc1)C(=O)OC[C@@H](Cc1c[nH]c2ccccc12)NC(=O)[C@H](CC=C)CC(=O)N(CCO)Cc1ccccc1` was tested. Which Potency did it give?
**A.** inactive

**Q.** How did the Potency turn out when `COc1cc(OC)c([N+](=O)[O-])cc1/C=N/NC(=O)c1ccncc1` was run?
**A.** inconclusive: 79.4 µM [inhibitor, partial curve, poor fit]

**Q.** `Cc1cc(C(C)(C)C)cc(C)c1CCNC(=O)c1c(C)noc1C` was tested. Which Potency did it give?
**A.** inconclusive: 100 µM [inhibitor, single point]

**Q.** Which Potency does the source give for `COC(=O)c1ccc(-c2noc(CN(Cc3nccn3C)C(C)C)n2)cc1` here?
**A.** inconclusive: 17.8 µM [inhibitor, full curve, poor fit]

**Q.** For `COc1ccc(C2=NN(C(=O)CCCC(=O)O)C(c3cn(-c4ccccc4)nc3-c3ccccc3)C2)cc1` (configuration not stated), which Potency is on record?
**A.** inconclusive: 70.8 µM [inhibitor, partial curve, poor fit]

**Q.** With `S=c1[nH]nc(COc2ccc(Cl)cc2)n1-c1ccccc1` as the compound, how does the Potency read?
**A.** inconclusive: 89.1 µM [inhibitor, single point]

**Q.** For `CCC(=O)Nc1ccc(CC)cc1-c1nc2ccccc2n(CC(=O)Nc2ccccc2C)c1=O`, which Potency is on record?
**A.** inactive

**Q.** `COc1ccc(-c2onc(C)c2C)cc1S(=O)(=O)Nc1cc(Cl)ccc1C` was tested. Which Potency did it give?
**A.** inactive

**Q.** How did the Potency turn out when `CC(C)OC(=O)c1ccc(NCc2cc(O)ccc2O)cc1Cl` was run?
**A.** inconclusive: 50.1 µM [inhibitor, partial curve, poor fit]

**Q.** How did the Potency turn out when `O=C(N/N=C\c1c(F)c(F)c(F)c(F)c1F)c1ccc(-c2ccccc2)cc1` was run?
**A.** inconclusive: 89.1 µM [inhibitor, single point]

**Q.** With `Cc1ccc2c(=O)c(C(=O)c3ccccc3)cn(CC(=O)Nc3ccccc3C)c2n1` as the compound, how does the Potency read?
**A.** inactive

**Q.** Which Potency does the source give for `C=CCNC(=O)CSc1nc2cc(C(=O)OCC)ccc2n1CC` here?
**A.** inactive

**Q.** `Cc1nn(CCCC(=O)Nc2cccc(C(F)(F)F)c2)c(=O)c2nn(-c3ccccc3)c(C)c12` was tested. Which Potency did it give?
**A.** inactive

**Q.** `Cn1c2ccccc2c2c(C(=O)NCc3ccco3)cn(C3CCCCC3)c(=O)c21` was tested. Which Potency did it give?
**A.** inconclusive: 79.4 µM [inhibitor, partial curve, poor fit]

**Q.** How did the Potency turn out when `COc1cccc2c1C(=O)c1c(O)c3c(c(O)c1C2=O)C[C@@](O)(C(C)=O)C[C@@H]3O[C@H]1C[C@H](N)[C@H](O)[C@H](C)O1` was run?
**A.** inconclusive: 56.2 µM [inhibitor, partial curve, poor fit]

**Q.** How did the Potency turn out when `CCN(C(=O)CSc1nc2ccccc2c(=O)n1-c1cccc(C)c1)C1CCS(=O)(=O)C1` (configuration not stated) was run?
**A.** inconclusive: 31.6 µM [inhibitor, full curve, poor fit]

**Q.** `CNC(=O)c1cc(Oc2ccc(NC(=O)Nc3ccc(Cl)c(C(F)(F)F)c3)cc2)ccn1` was tested. Which Potency did it give?
**A.** inactive

**Q.** Which Potency does the source give for `C=CCn1c(SCC(=O)Nc2sccc2C(N)=O)nc2sc(CC)cc2c1=O` here?
**A.** inconclusive: 89.1 µM [inhibitor, single point]

**Q.** How did the Potency turn out when `CC(=O)Nc1ccc(NC(=O)C2CCN(C(=O)c3cccs3)CC2)cc1` was run?
**A.** inconclusive: 89.1 µM [inhibitor, partial curve, poor fit]

**Q.** With `O=C(NC1CCN(C(=S)Nc2ccc(F)cc2)CC1)C1CCCCC1` as the compound, how does the Potency read?
**A.** inactive

**Q.** `COc1cccc(OC)c1OCC(C)CNCC1CCCO1` (configuration not stated) was tested. Which Potency did it give?
**A.** inactive

**Q.** For `COc1cc(OC)c(-c2nn3c(C4CCCCC4)nnc3s2)cc1OC`, which Potency is on record?
**A.** inconclusive: 17.8 µM [inhibitor, full curve, poor fit]

**Q.** How did the Potency turn out when `CCOc1ccc(OCC)c(Nc2cc(C)nc3nc(C)nn23)c1` was run?
**A.** inconclusive: 70.8 µM [inhibitor, single point]

**Q.** For `O=C(Nc1ccccc1)N(O)c1ccc(Cl)cc1`, which Potency is on record?
**A.** inconclusive: 22.4 µM [inhibitor, full curve, poor fit]

— PubChem BioAssay AID504845 (National Center for Advancing Translational Sciences (NCATS), 2011)
